{
  "source": "the supplement of paper PMC8728848",
  "binders": {"B1": {"name": "Di AAL2 (Agrocybe aegerita) (protein)", "chain": "MTSNVITQDLPIPVASRGFADIVGFGLDGVVIGRNAVNLQPFLAVKNFAQNAGGWLTTKHVRLIADTTGTGKGDIVGFGNAGVYVSVNNGKNTFADPPKMVIANFGYDAGGWRVEKHLRYLADIRKIGRADIIGFGEKGVLVSRNNGGLNFGPATLVLKDFGYDAGGWRLDRHLRFLADVTGNGHLDIVGFGDKHVFISRNNGDGTFAPAKSVIDNFCIDAGGWKIGDHPRFVADLTGDGTADIIGCGKAGCWVALNNGGGVFGQVKLVINDFGTDKGWQAAKHPRFIADLTGNGRGDVVGFGNAGVYVALNNGDGTFQSAKLVLKDFGVQQGWTVSKHRRFVVDLTGDGCADIIGFGEKETLVSYNDGKGNFGPVKALTNDFSFSGGKWAPETTVCWMANLDSSRHPAPAPMTSNVITQDLPIPVASRGFADIVGFGLDGVVIGRNAVNLQPFLAVKNFAQNAGGWLTTKHVRLIADTTGTGKGDIVGFGNAGVYVSVNNGKNTFADPPKMVIANFGYDAGGWRVEKHLRYLADIRKIGRADIIGFGEKGVLVSRNNGGLNFGPATLVLKDFGYDAGGWRLDRHLRFLADVTGNGHLDIVGFGDKHVFISRNNGDGTFAPAKSVIDNFCIDAGGWKIGDHPRFVADLTGDGTADIIGCGKAGCWVALNNGGGVFGQVKLVINDFGTDKGWQAAKHPRFIADLTGNGRGDVVGFGNAGVYVALNNGDGTFQSAKLVLKDFGVQQGWTVSKHRRFVVDLTGDGCADIIGFGEKETLVSYNDGKGNFGPVKALTNDFSFSGGKWAPETTVCWMANLDSSRH"}},
  "test_in_all_cases": "glycan array binding signal (z-score within array); higher = stronger binding",
  "conditions_in_all_cases": "glycan notation: IUPAC condensed, linker removed",
  "key": {"[1]": {"target": "Gal3S(b1-3)[Fuc(a1-4)]GlcNAc", "outline": "(§1)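 The binding signal is a Z-score computed within each array and averaged over linkers. Arrays of the same protein sequence at different concentrations or buffers were also averaged together. Data originate from 3228 arrays in the Consortium for Functional Glycomics database, kept only where the protein sequence was available.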"}, "Gal3S(b1-4)Glc": {"target": "Gal3S(b1-4)Glc", "outline": "as §1"}, "Gal3S(b1-4)Glc6S": {"target": "Gal3S(b1-4)Glc6S", "outline": "as §1"}, "Gal3S(b1-4)GlcNAc": {"target": "Gal3S(b1-4)GlcNAc", "outline": "as §1"}, "[2]": {"target": "Gal3S(b1-4)[Fuc(a1-3)]Glc6S", "outline": "as §1"}, "[3]": {"target": "Gal3S(b1-4)[Fuc(a1-3)]GlcNAc", "outline": "as §1"}, "[4]": {"target": "Gal3S(b1-4)[Fuc(a1-3)]GlcNAc6S", "outline": "as §1"}, "Gal3S4S(b1-4)GlcNAc": {"target": "Gal3S4S(b1-4)GlcNAc", "outline": "as §1"}, "Gal3S6S(b1-4)GlcNAc": {"target": "Gal3S6S(b1-4)GlcNAc", "outline": "as §1"}, "Gal3S6S(b1-4)GlcNAc6S": {"target": "Gal3S6S(b1-4)GlcNAc6S", "outline": "as §1"}, "Gal4S(b1-4)GlcNAc": {"target": "Gal4S(b1-4)GlcNAc", "outline": "as §1"}, "Gal4S6S(b1-4)GlcNAc": {"target": "Gal4S6S(b1-4)GlcNAc", "outline": "as §1"}, "Gal6P(b1-4)GlcNAc": {"target": "Gal6P(b1-4)GlcNAc", "outline": "as §1"}, "Gal6S(b1-3)GlcNAc": {"target": "Gal6S(b1-3)GlcNAc", "outline": "as §1"}, "Gal6S(b1-3)GlcNAc6S": {"target": "Gal6S(b1-3)GlcNAc6S", "outline": "as §1"}, "Gal6S(b1-4)Glc": {"target": "Gal6S(b1-4)Glc", "outline": "as §1"}, "Gal6S(b1-4)Glc6S": {"target": "Gal6S(b1-4)Glc6S", "outline": "as §1"}, "Gal6S(b1-4)GlcNAc": {"target": "Gal6S(b1-4)GlcNAc", "outline": "as §1"}, "Gal6S(b1-4)GlcNAc6S": {"target": "Gal6S(b1-4)GlcNAc6S", "outline": "as §1"}, "GalNAc(a1-3)Gal": {"target": "GalNAc(a1-3)Gal", "outline": "as §1"}, "GalNAc(a1-3)GalNAc": {"target": "GalNAc(a1-3)GalNAc", "outline": "as §1"}, "[5]": {"target": "GalNAc(a1-3)GalNAc(b1-3)Gal(a1-4)Gal(b1-4)Glc", "outline": "as §1"}, "[6]": {"target": "GalNAc(a1-3)GalNAc(b1-3)Gal(a1-4)Gal(b1-4)GlcNAc", "outline": "as §1"}, "GalNAc(b1-3)Gal": {"target": "GalNAc(b1-3)Gal", "outline": "as §1"}, "[7]": {"target": "GalNAc(b1-3)Gal(a1-4)Gal(b1-4)GlcNAc", "outline": "as §1"}, "[8]": {"target": "GalNAc(b1-3)Gal(a1-4)Gal(b1-4)GlcNAc(b1-3)Gal(b1-4)Glc", "outline": "as §1"}, "[9]": {"target": "GalNAc(b1-3)Gal(a1-6)Gal(b1-4)Glc", "outline": "as §1"}, "GalNAc(b1-3)GalNAc": {"target": "GalNAc(b1-3)GalNAc", "outline": "as §1"}, "GalNAc(b1-3)GlcNAc": {"target": "GalNAc(b1-3)GlcNAc", "outline": "as §1"}, "GalNAc(b1-4)Gal(b1-4)Glc": {"target": "GalNAc(b1-4)Gal(b1-4)Glc", "outline": "as §1"}},
  "note": "Some of the results follow.",
  "data": [
    {"binder": "B1", "values": [
      {"measurement": "glycan array binding signal (z-score)", "setting": "[1]", "result": -0.33},
      {"measurement": "glycan array binding signal (z-score)", "setting": "Gal3S(b1-4)Glc", "result": -0.334},
      {"measurement": "glycan array binding signal (z-score)", "setting": "Gal3S(b1-4)Glc6S", "result": -0.332},
      {"measurement": "glycan array binding signal (z-score)", "setting": "Gal3S(b1-4)GlcNAc", "result": -0.335},
      {"measurement": "glycan array binding signal (z-score)", "setting": "[2]", "result": -0.306},
      {"measurement": "glycan array binding signal (z-score)", "setting": "[3]", "result": -0.34},
      {"measurement": "glycan array binding signal (z-score)", "setting": "[4]", "result": -0.321},
      {"measurement": "glycan array binding signal (z-score)", "setting": "Gal3S4S(b1-4)GlcNAc", "result": -0.336},
      {"measurement": "glycan array binding signal (z-score)", "setting": "Gal3S6S(b1-4)GlcNAc", "result": -0.336},
      {"measurement": "glycan array binding signal (z-score)", "setting": "Gal3S6S(b1-4)GlcNAc6S", "result": -0.302},
      {"measurement": "glycan array binding signal (z-score)", "setting": "Gal4S(b1-4)GlcNAc", "result": -0.348},
      {"measurement": "glycan array binding signal (z-score)", "setting": "Gal4S6S(b1-4)GlcNAc", "result": -0.338},
      {"measurement": "glycan array binding signal (z-score)", "setting": "Gal6P(b1-4)GlcNAc", "result": -0.318},
      {"measurement": "glycan array binding signal (z-score)", "setting": "Gal6S(b1-3)GlcNAc", "result": -0.327},
      {"measurement": "glycan array binding signal (z-score)", "setting": "Gal6S(b1-3)GlcNAc6S", "result": -0.328},
      {"measurement": "glycan array binding signal (z-score)", "setting": "Gal6S(b1-4)Glc", "result": -0.338},
      {"measurement": "glycan array binding signal (z-score)", "setting": "Gal6S(b1-4)Glc6S", "result": -0.326},
      {"measurement": "glycan array binding signal (z-score)", "setting": "Gal6S(b1-4)GlcNAc", "result": -0.34},
      {"measurement": "glycan array binding signal (z-score)", "setting": "Gal6S(b1-4)GlcNAc6S", "result": -0.331},
      {"measurement": "glycan array binding signal (z-score)", "setting": "GalNAc(a1-3)Gal", "result": -0.253},
      {"measurement": "glycan array binding signal (z-score)", "setting": "GalNAc(a1-3)GalNAc", "result": -0.285},
      {"measurement": "glycan array binding signal (z-score)", "setting": "[5]", "result": -0.179},
      {"measurement": "glycan array binding signal (z-score)", "setting": "[6]", "result": -0.226},
      {"measurement": "glycan array binding signal (z-score)", "setting": "GalNAc(b1-3)Gal", "result": 0.303},
      {"measurement": "glycan array binding signal (z-score)", "setting": "[7]", "result": -0.199},
      {"measurement": "glycan array binding signal (z-score)", "setting": "[8]", "result": -0.077},
      {"measurement": "glycan array binding signal (z-score)", "setting": "[9]", "result": -0.033},
      {"measurement": "glycan array binding signal (z-score)", "setting": "GalNAc(b1-3)GalNAc", "result": 1.5},
      {"measurement": "glycan array binding signal (z-score)", "setting": "GalNAc(b1-3)GlcNAc", "result": -0.318},
      {"measurement": "glycan array binding signal (z-score)", "setting": "GalNAc(b1-4)Gal(b1-4)Glc", "result": -0.329}
    ]}
  ]
}
